Experimental data as given in paper PMC4336329 (PLoS ONE, 2015).
The campaign covered roughly 310,000 compounds. About 14,000 (4.5%) showed an effect of 50% or more. The effect is printed as a negative number. The list shows a part of the results.

Target: human ether-à-go-go-related gene (hERG) potassium channel (human, UniProt Q12809)
Experiment: primary screen, population patch clamp on CHO cells stably expressing hERG
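Further: peak tail current of the secondary pulse compared with the same well before compound.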

Sequence of human ether-à-go-go-related gene (hERG) potassium channel (Q12809 whole entry, looked up): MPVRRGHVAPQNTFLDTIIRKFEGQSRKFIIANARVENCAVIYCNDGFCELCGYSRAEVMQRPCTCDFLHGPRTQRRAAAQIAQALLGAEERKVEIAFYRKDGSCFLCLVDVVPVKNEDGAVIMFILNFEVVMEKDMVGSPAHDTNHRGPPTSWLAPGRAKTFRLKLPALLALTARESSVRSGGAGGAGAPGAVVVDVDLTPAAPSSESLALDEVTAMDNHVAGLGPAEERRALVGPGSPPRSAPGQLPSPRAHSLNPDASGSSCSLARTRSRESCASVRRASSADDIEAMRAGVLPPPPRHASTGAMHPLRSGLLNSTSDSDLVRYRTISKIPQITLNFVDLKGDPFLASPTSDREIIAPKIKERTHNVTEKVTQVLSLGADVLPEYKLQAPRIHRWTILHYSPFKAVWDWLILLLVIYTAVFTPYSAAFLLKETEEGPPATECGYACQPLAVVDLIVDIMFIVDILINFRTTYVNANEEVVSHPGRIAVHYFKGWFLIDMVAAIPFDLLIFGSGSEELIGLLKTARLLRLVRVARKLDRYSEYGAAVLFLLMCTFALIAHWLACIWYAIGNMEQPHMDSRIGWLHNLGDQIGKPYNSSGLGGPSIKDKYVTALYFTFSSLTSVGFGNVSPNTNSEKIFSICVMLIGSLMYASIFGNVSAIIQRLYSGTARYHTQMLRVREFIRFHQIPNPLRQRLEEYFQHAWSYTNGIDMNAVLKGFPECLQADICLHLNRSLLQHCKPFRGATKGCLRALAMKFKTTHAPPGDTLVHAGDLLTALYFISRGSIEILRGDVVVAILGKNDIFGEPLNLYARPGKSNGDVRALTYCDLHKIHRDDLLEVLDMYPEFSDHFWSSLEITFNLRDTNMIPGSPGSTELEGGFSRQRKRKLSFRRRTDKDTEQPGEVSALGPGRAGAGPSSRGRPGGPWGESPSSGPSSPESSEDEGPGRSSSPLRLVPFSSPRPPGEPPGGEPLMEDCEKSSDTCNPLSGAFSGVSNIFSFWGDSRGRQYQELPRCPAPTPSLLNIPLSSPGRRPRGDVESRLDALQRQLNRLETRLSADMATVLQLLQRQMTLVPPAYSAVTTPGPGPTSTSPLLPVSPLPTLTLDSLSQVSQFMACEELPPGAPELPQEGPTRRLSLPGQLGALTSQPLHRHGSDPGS

| Structure (SMILES) | hERG current change (%, negative = inhibition) at 10uM [%] |
| --- | --- |
| C/C(=N\NC(N)=S)C1(C)CCCCC1 | 9.27 |
| COCCNC(=O)CSc1nc2cc3c(cc2c(=O)n1CCCC(=O)NCCc1ccc(OC)c(OC)c1)OCO3 | 28.8 |
| COc1ccc(-c2cc(C(=O)Nc3ccc(Cl)cc3Cl)c3ccccc3n2)cc1OC | 9.13 |
| O=C(CNS(=O)(=O)c1ccc(Cl)c(C(F)(F)F)c1)NC1CCCCC1 | 8.66 |
| Cc1ccsc1C(=O)NNC(=O)Nc1ccc(Cl)c(Cl)c1 | 3.41 |
| COc1ccc(-n2c(COc3ccc(C)cc3)nnc2SCC(=O)O)cc1 | 12.9 |
| COc1ccc(C2/C(=C(\O)c3ccc4c(c3)CC(C)O4)C(=O)C(=O)N2Cc2cccnc2)c(OC)c1 (centres unmarked) | 2.72 |
| Cc1cccc(N(C(=O)c2snc(C(N)=O)c2N)C(C(=O)NCC2CCCO2)c2ccc(N(C)C)cc2)c1C (centres unmarked) | 5.26 |
| CC(=O)c1sc2nc(-c3ccco3)ccc2c1N | 0.505 |
| COc1cccc2cc(C(=O)NCCc3ccccc3)oc12 | -20.1 |
| O=C(NCCS(=O)(=O)N1CCN(c2ccccc2)CC1)C1CC(=O)N(c2ccccc2)C1 (centres unmarked) | 18.9 |
| CCOC(=O)c1c(NC(=O)c2ccco2)sc2c1CCCCC2 | 9.58 |
| COc1ccc(CCNC(=O)c2ccc(NC3=NC4CS(=O)(=O)CC4S3)cc2)cc1OC (centres unmarked) | 18.6 |
| Cc1cc(NC(=O)c2ccco2)c(=O)n(Cc2cccc(C(F)(F)F)c2)c1 | -1.86 |
| C[C@@H](C(=O)NCc1ccco1)N1C(=O)N2CCc3c([nH]c4ccccc34)[C@@]2(C)C1=O | -22.8 |
| CCc1cccc(Nc2cc(C)nc3nc(C)nn23)c1 | -25.3 |
| Cc1ccc(CN2CCN(/N=C\C=C\c3ccccc3)CC2)cc1 | -72.2 |
| Cc1ccc(C(=O)/C=C/Nc2cccc([N+](=O)[O-])c2)o1 | -6.39 |
| COC(=O)c1sccc1NC(=O)c1cc(-c2cc(C)ccc2C)nc2ccccc12 | 5.4 |

| Structure (SMILES) | hERG current change (%, negative = inhibition) at 10uM [%] |
| --- | --- |
| CCOC(=O)N1C=CC(C)=C[C@@H]2[C@@H](N3C(=O)c4ccccc4C3=O)C(=O)N21 | -16.3 |
| COc1ccc(NC(=O)c2sc3nc(C)cc(C)c3c2N)c(OC)c1 | -6.2 |
| c1ccc(CC2CCN(Cc3nc(-c4ccccc4)no3)CC2)cc1 | -8.93 |
| NC(=O)COC(=O)Cc1coc2cc3c(cc12)CCC3 | 12.9 |
| O=C(NCc1cccnc1)C(=O)NCC1OCCCN1S(=O)(=O)c1ccc(F)cc1 (centres unmarked) | 6.99 |
| CCOc1ccc(C2CC(c3ccc(CC)cc3)Nc3nc(N)nn32)cc1 (centres unmarked) | 1.96 |
| Fc1cccc(F)c1-n1c(CN2CCCCC2)csc1=S | 4.06 |
| CC(C)(C)C(=O)Nc1nnc(-c2ccccc2)c(-c2ccccc2)n1 | -6.96 |
| Cn1c(=O)[nH]c2nnc(-c3ccc(Cl)c(Cl)c3)nc2c1=O | 8.52 |
| COc1ccccc1CNC(=O)/C=C/C(=O)O | 8.64 |
| CCOC(=O)C1(CCCc2ccccc2)CCN(C(=O)CCOC)CC1 | -46.8 |
| OC(CN1CCC(Cc2ccccc2)CC1)c1ccccc1 (centres unmarked) | -52.9 |
| O=C(C1=C[C@H](c2ccccc2)C[C@H](OCCCCO)O1)N1CCN(Cc2ccccc2)CC1 | -38.9 |
| CN(C)C(=O)c1cc([N+](=O)[O-])ccc1O | 22 |
| CCCCNC(=S)Nc1ccc(Cl)cc1 | 3.01 |
| Cn1c(=O)c2cc(S(=O)(=O)NCCC(=O)Nc3ccccc3F)ccc2n(C)c1=O | 3.05 |
| c1ccc(SCc2cc(-c3ccccc3)no2)cc1 | 21 |
| C/C(=N\NC(=O)c1nn(C)c(C)c1Br)c1cccc(NC(=O)c2ccc(F)cc2)c1 | -38.5 |
| Cc1[nH][nH]c(=O)c1N=Nc1ccccc1 | 9.77 |

| Structure (SMILES) | hERG current change (%, negative = inhibition) at 10uM [%] |
| --- | --- |
| Cc1cc([N+](=O)[O-])nn1CCCC(=O)Nc1ccc2c(c1)OCO2 | -5.95 |
| CC(C)c1nc(SCC(=O)NCc2ccccc2)n[nH]1 | 2.8 |
| CC(C)NC(=O)c1ccc(CNC(=O)OCC(F)(F)F)cc1 | -0.534 |
| Cc1cccc(CCN(C(=O)Cc2cccs2)C(C(=O)NC2CCCCC2)c2cccnc2)c1 (centres unmarked) | 3.91 |
| CN(CC(=O)Nc1ccccc1Br)C(=O)C1CCN(C(=O)c2ccc(Cl)cc2)CC1 | -50.1 |
| CSCC[C@H](NC(=O)OC(C)(C)C)C(=O)N1CCC(C(=O)N[C@@H](C)C(=O)NC(C)c2ccccc2)CC1 (some centres unmarked) | 19.2 |
| O=C(O)C1C2C=CC3(CN(C4CCCC4)C(=O)C13)O2 (centres unmarked) | 1.48 |
| CC(=O)Nc1cccc(-c2nc3ccc(NC(C)=O)cc3[nH]2)c1 | 7.37 |
| O=C(NCCCN1CCOCC1)c1sc2cc(F)ccc2c1Cl | -44 |
| CC(C)(C)n1nnnc1CN(Cc1ccco1)Cc1cc2cc3c(cc2[nH]c1=O)OCO3 | 3.98 |
| COc1ccc(Cn2cnc3c(NS(C)(=O)=O)c(C)c(C)cc32)cc1 | -4.46 |
| Cc1cc(NC(=O)C(C)C)n(-c2nc3ccccc3s2)n1 | 18.5 |
| CCc1ccc(-c2cc(C)no2)cc1S(=O)(=O)NCCc1ccccc1 | 2.38 |
| COc1ccc(NC(=O)Cn2c(=O)c(C)nc3ccccc32)cc1Cl | -2.07 |
| CCc1ccc(Nc2n[n+](-c3ccccc3)c(-c3cccc(Cl)c3Cl)s2)cc1.[Cl-] | -1.43 |
| COc1ccccc1CC(=O)O/N=C(\N)c1ccccn1 | 9.18 |
| Nc1ccccc1N=Nc1ccccc1N | -2.45 |
| Cc1cc(C)c(S(=O)(=O)c2ccccc2C)c(N(C)C)n1 | 4.75 |
